# Laboratory results: the supplement of paper PMC8728848
# The other results are listed elsewhere or left out.
# B1: rAAL-I144G (Agrocybe aegerita), Q6WY08 (protein)
# chain: MQGVNIYNISAGTSVDLAAPVTTGDIVTFFSSALNLNAGAGNPNNTTLNLFAENGAYLLHIAFRLQENVIIFNSRQPDGPWLVEQRVSDVANQFAGIDGKAMVTVFDHGDKYQVVINEKTVIQYTKQISGLTLSLSYNATEETSGFSTVVEAVTYTGLALEHHHHHH
# How the values were obtained:
# Assay in all cases: glycan array binding signal (z-score within array); higher = stronger binding
# Settings in all cases: glycan notation: IUPAC condensed, linker removed; mutation: I144G
# [1] = biological target: Gal(a1-3)Gal
# Procedure, shortened: (§1)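 From the Consortium for Functional Glycomics database, 3228 arrays were curated, keeping only those whose protein sequence was available. Binding is given as a within-array Z-score averaged across arrays sharing a protein sequence and across linkers. Negative Z-scores can be read as non-binding.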
# [2] = biological target: Gal(a1-3)Gal(b1-3)GlcNAc
# Procedure, shortened: as §1
# [3] = biological target: Gal(a1-3)Gal(b1-3)GlcNAc(b1-2)Man
# Procedure, shortened: as §1
# [4] = biological target: Gal(a1-3)Gal(b1-3)GlcNAc(b1-2)Man(a1-3)[Gal(a1-3)Gal(b1-3)GlcNAc(b1-2)Man(a1-6)]Man(b1-4)GlcNAc(b1-4)GlcNAc
# Procedure, shortened: as §1
# [5] = biological target: Gal(a1-3)Gal(b1-3)GlcNAc(b1-3)GalNAc
# Procedure, shortened: as §1
# [6] = biological target: Gal(a1-3)Gal(b1-3)GlcNAc(b1-6)GalNAc
# Procedure, shortened: as §1
# [7] = biological target: Gal(a1-3)Gal(b1-3)[Fuc(a1-4)]GlcNAc(b1-2)Man(a1-3)[Gal(a1-3)Gal(b1-3)[Fuc(a1-4)]GlcNAc(b1-2)Man(a1-6)]Man(b1-4)GlcNAc(b1-4)GlcNAc
# Procedure, shortened: as §1
# [8] = biological target: Gal(a1-3)Gal(b1-4)Glc
# Procedure, shortened: as §1
# [9] = biological target: Gal(a1-3)Gal(b1-4)GlcNAc
# Procedure, shortened: as §1
# [10] = biological target: Gal(a1-3)Gal(b1-4)GlcNAc(b1-2)Man
# Procedure, shortened: as §1
# [11] = biological target: Gal(a1-3)Gal(b1-4)GlcNAc(b1-2)Man(a1-3)[Gal(a1-3)Gal(b1-4)GlcNAc(b1-2)Man(a1-6)]Man(b1-4)GlcNAc(b1-4)GlcNAc
# Procedure, shortened: as §1
# [12] = biological target: Gal(a1-3)Gal(b1-4)GlcNAc(b1-3)GalNAc
# Procedure, shortened: as §1
# [13] = biological target: Gal(a1-3)Gal(b1-4)GlcNAc(b1-6)GalNAc
# Procedure, shortened: as §1
# [14] = biological target: Gal(a1-3)Gal(b1-4)[Fuc(a1-3)]GlcNAc
# Procedure, shortened: as §1
# [15] = biological target: Gal(a1-3)Gal(b1-4)[Fuc(a1-3)]GlcNAc(b1-2)Man(a1-3)[Gal(a1-3)Gal(b1-4)[Fuc(a1-3)]GlcNAc(b1-2)Man(a1-6)]Man(b1-4)GlcNAc(b1-4)GlcNAc
# Procedure, shortened: as §1
# [16] = biological target: Gal(a1-3)GalNAc
# Procedure, shortened: as §1
# [17] = biological target: Gal(a1-3)[Gal(a1-4)]Gal(b1-4)GlcNAc
# Procedure, shortened: as §1
# [18] = biological target: Gal(a1-4)Gal(b1-3)GlcNAc(b1-2)Man(a1-3)[Gal(a1-4)Gal(b1-3)GlcNAc(b1-2)Man(a1-6)]Man(b1-4)GlcNAc(b1-4)GlcNAc
# Procedure, shortened: as §1
# [19] = biological target: Gal(a1-4)Gal(b1-4)Glc
# Procedure, shortened: as §1
# [20] = biological target: Gal(a1-4)Gal(b1-4)GlcNAc
# Procedure, shortened: as §1
# [21] = biological target: Gal(a1-4)Gal(b1-4)GlcNAc(b1-2)Man(a1-3)[Gal(a1-4)Gal(b1-4)GlcNAc(b1-2)Man(a1-6)]Man(b1-4)GlcNAc(b1-4)GlcNAc
# Procedure, shortened: as §1
# [22] = biological target: Gal(a1-4)Gal(b1-4)GlcNAc(b1-3)Gal(b1-4)Glc
# Procedure, shortened: as §1
# [23] = biological target: Gal(a1-4)GlcNAc
# Procedure, shortened: as §1
# [24] = biological target: Gal(a1-6)Glc
# Procedure, shortened: as §1
# [25] = biological target: Gal(b1-2)Gal
# Procedure, shortened: as §1
# [26] = biological target: Gal(b1-3)Gal
# Procedure, shortened: as §1
# [27] = biological target: Gal(b1-3)Gal(b1-4)GlcNAc
# Procedure, shortened: as §1
# [28] = biological target: Gal(b1-3)GalNAc
# Procedure, shortened: as §1
# [29] = biological target: Gal(b1-3)GalNAc(a1-3)[Fuc(a1-2)]Gal(b1-4)Glc
# Procedure, shortened: as §1
# [30] = biological target: Gal(b1-3)GalNAc(a1-3)[Fuc(a1-2)]Gal(b1-4)GlcNAc
# Procedure, shortened: as §1
# [31] = biological target: Gal(b1-3)GalNAc(b1-3)Gal
# Procedure, shortened: as §1
# [32] = biological target: Gal(b1-3)GalNAc(b1-3)Gal(a1-4)Gal(b1-4)Glc
# Procedure, shortened: as §1
# [33] = biological target: Gal(b1-3)GalNAc(b1-4)Gal(b1-4)Glc
# Procedure, shortened: as §1
# [34] = biological target: Gal(b1-3)GalNAc(b1-4)[Neu5Ac(a2-3)]Gal(b1-4)Glc
# Procedure, shortened: as §1
# [35] = biological target: Gal(b1-3)GlcNAc
# Procedure, shortened: as §1
# [36] = biological target: Gal(b1-3)GlcNAc(a1-3)Gal(b1-4)GlcNAc
# Procedure, shortened: as §1
# [37] = biological target: Gal(b1-3)GlcNAc(a1-6)Gal(b1-4)GlcNAc
# Procedure, shortened: as §1
# [38] = biological target: Gal(b1-3)GlcNAc(b1-2)Man
# Procedure, shortened: as §1
binder,measurement,setting,value
B1,glycan array binding signal (z-score),[1],-0.059
same,glycan array binding signal (z-score),[2],-0.116
same,glycan array binding signal (z-score),[3],-0.135
same,glycan array binding signal (z-score),[4],-0.179
same,glycan array binding signal (z-score),[5],-0.162
same,glycan array binding signal (z-score),[6],-0.113
same,glycan array binding signal (z-score),[7],-0.159
same,glycan array binding signal (z-score),[8],-0.103
same,glycan array binding signal (z-score),[9],-0.167
same,glycan array binding signal (z-score),[10],-0.065
same,glycan array binding signal (z-score),[11],2.88
same,glycan array binding signal (z-score),[12],-0.147
same,glycan array binding signal (z-score),[13],-0.123
same,glycan array binding signal (z-score),[14],-0.179
same,glycan array binding signal (z-score),[15],0.126
same,glycan array binding signal (z-score),[16],-0.151
same,glycan array binding signal (z-score),[17],-0.115
same,glycan array binding signal (z-score),[18],-0.008
same,glycan array binding signal (z-score),[19],0.015
same,glycan array binding signal (z-score),[20],-0.116
same,glycan array binding signal (z-score),[21],-0.092
same,glycan array binding signal (z-score),[22],-0.026
same,glycan array binding signal (z-score),[23],-0.107
same,glycan array binding signal (z-score),[24],-0.082
same,glycan array binding signal (z-score),[25],-0.179
same,glycan array binding signal (z-score),[26],-0.093
same,glycan array binding signal (z-score),[27],-0.134
same,glycan array binding signal (z-score),[28],-0.118
same,glycan array binding signal (z-score),[29],-0.124
same,glycan array binding signal (z-score),[30],-0.048
same,glycan array binding signal (z-score),[31],-0.186
same,glycan array binding signal (z-score),[32],-0.06
same,glycan array binding signal (z-score),[33],-0.073
same,glycan array binding signal (z-score),[34],-0.191
same,glycan array binding signal (z-score),[35],-0.138
same,glycan array binding signal (z-score),[36],-0.111
same,glycan array binding signal (z-score),[37],-0.037
same,glycan array binding signal (z-score),[38],0.005
